These results are taken from paper PMC12820563, “FoxP3 forms a head-to-head dimer in vivo and stabilizes its multimerization on adjacent microsatellites”.

The other results are listed elsewhere or left out.

For the assay, the target named is T1, MBP-FoxP1dN (Mus musculus, UniProt P58462 326-579).
T1 sequence: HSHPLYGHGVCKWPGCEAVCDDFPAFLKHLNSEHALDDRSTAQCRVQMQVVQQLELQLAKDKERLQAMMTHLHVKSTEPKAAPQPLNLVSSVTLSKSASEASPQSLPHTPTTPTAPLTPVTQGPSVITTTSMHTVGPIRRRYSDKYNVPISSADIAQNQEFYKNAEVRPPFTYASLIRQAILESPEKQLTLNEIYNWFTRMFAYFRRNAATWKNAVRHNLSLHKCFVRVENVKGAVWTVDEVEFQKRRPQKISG
The assay can be described thus: PD-seq (MBP pull-down with sequencing); 20 mM Tris-HCl pH 7.5, 100 mM NaCl, 1.5 mM MgCl2, 0.4 uM protein, 0.1 uM dsDNA library, 30 min, room temperature, amylose pull-down; high values mean tight binding. The following applies: protein: recombinant; tags: His6-MBP; chain copies: 2; dsDNA, one strand shown. The method, boiled down: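 His6-MBP-tagged mouse FoxP3 or FoxP1 fragment lacking the N-terminus, expressed in E. coli, was mixed at 0.4 µM with 0.1 µM Klenow-filled double-stranded degenerate DNA library. Incubation was 30 min at room temperature in Tris pH 7.5 buffer with NaCl and MgCl2. Complexes were caught on amylose resin and washed three times; DNA was released with proteinase K, PCR-barcoded and Illumina-sequenced. Binding is reads-per-million enrichment, pull-down over input, with replicates pooled.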
On to “GATGATTGTTCTCCCAGCTGATGAATTTTCGAGTTCGAGTAAACAAATTTTCCTAATCTTTCTGTTCAAGCGCCATCTAC”, for which the binding signal was 0.959 RPM ratio (pull-down/input).

Turning to “GATGATTGTTCTCCCAGCTGATGAATTTCCGGTGTCGAGTAAACAAATTTTCCTAATCTTTCTGTTCAAGCGCCATCTAC”, the binding signal was 0.877 RPM ratio (pull-down/input).

For “GATGATTGTTCTCCCAGCTGATGAATTGTCCGGATCGAGTAAACAAATTTTCCTAATCTTTCTGTTCAAGCGCCATCTAC”, the binding signal was 0.87 RPM ratio (pull-down/input).

As for “GATGATTGTTCTCCCAGCTGATGAATTTCGCAATTCGAGTAAACAAATTTTCCTAATCTTTCTGTTCAAGCGCCATCTAC”, the binding signal is 0.971 RPM ratio (pull-down/input).

Consider “GATGATTGTTCTCCCAGCTGATGAATTAGAGCGGTCGAGTAAACAAATTTTCCTAATCTTTCTGTTCAAGCGCCATCTAC”, for which the binding signal is 0.807 RPM ratio (pull-down/input).

As for “GATGATTGTTCTCCCAGCTGATGAATTCGCTCTATCGAGTAAACAAATTTTCCTAATCTTTCTGTTCAAGCGCCATCTAC”, the binding signal is 0.853 RPM ratio (pull-down/input).

For the sequence “GATGATTGTTCTCCCAGCTGATGAATTGCACATATCGAGTAAACAAATTTTCCTAATCTTTCTGTTCAAGCGCCATCTAC”, the binding signal is 1.36 RPM ratio (pull-down/input).

“GATGATTGTTCTCCCAGCTGATGAATTGTTGTCATCGAGTAAACAAATTTTCCTAATCTTTCTGTTCAAGCGCCATCTAC”: the binding signal was 2.36 RPM ratio (pull-down/input).

Turning to “GATGATTGTTCTCCCAGCTGATGAATTGTATAAGTCGAGTAAACAAATTTTCCTAATCTTTCTGTTCAAGCGCCATCTAC”, the binding signal is 1.02 RPM ratio (pull-down/input).

Turning to “GATGATTGTTCTCCCAGCTGATGAATTGGTACTTTCGAGTAAACAAATTTTCCTAATCTTTCTGTTCAAGCGCCATCTAC”, the binding signal was 1.08 RPM ratio (pull-down/input).

For the sequence “GATGATTGTTCTCCCAGCTGATGAATTGTTGATTTCGAGTAAACAAATTTTCCTAATCTTTCTGTTCAAGCGCCATCTAC”, the binding signal is 2.42 RPM ratio (pull-down/input).

For the sequence “GATGATTGTTCTCCCAGCTGATGAATTGTGTGGTTCGAGTAAACAAATTTTCCTAATCTTTCTGTTCAAGCGCCATCTAC”, the binding signal was 1.15 RPM ratio (pull-down/input).

Consider “GATGATTGTTCTCCCAGCTGATGAATTTGAGTCGTCGAGTAAACAAATTTTCCTAATCTTTCTGTTCAAGCGCCATCTAC”, for which the binding signal was 0.906 RPM ratio (pull-down/input).

On to “GATGATTGTTCTCCCAGCTGATGAATTTGCACCTTCGAGTAAACAAATTTTCCTAATCTTTCTGTTCAAGCGCCATCTAC”, for which the binding signal was 0.956 RPM ratio (pull-down/input).

Take “GATGATTGTTCTCCCAGCTGATGAATTGCATTATTCGAGTAAACAAATTTTCCTAATCTTTCTGTTCAAGCGCCATCTAC”: the binding signal was 1.62 RPM ratio (pull-down/input).

On to “GATGATTGTTCTCCCAGCTGATGAATTGTGAGCCTCGAGTAAACAAATTTTCCTAATCTTTCTGTTCAAGCGCCATCTAC”, for which the binding signal was 0.988 RPM ratio (pull-down/input).

“GATGATTGTTCTCCCAGCTGATGAATTGGTCGAGTCGAGTAAACAAATTTTCCTAATCTTTCTGTTCAAGCGCCATCTAC”: the binding signal is 0.835 RPM ratio (pull-down/input).

For “GATGATTGTTCTCCCAGCTGATGAATTTTCGTCGTCGAGTAAACAAATTTTCCTAATCTTTCTGTTCAAGCGCCATCTAC”, the binding signal is 0.939 RPM ratio (pull-down/input).

“GATGATTGTTCTCCCAGCTGATGAATTATGTGTTTCGAGTAAACAAATTTTCCTAATCTTTCTGTTCAAGCGCCATCTAC”: the binding signal is 1.51 RPM ratio (pull-down/input).

Take “GATGATTGTTCTCCCAGCTGATGAATTATGACTTTCGAGTAAACAAATTTTCCTAATCTTTCTGTTCAAGCGCCATCTAC”: the binding signal is 1.01 RPM ratio (pull-down/input).

As to “GATGATTGTTCTCCCAGCTGATGAATTTAATAATTCGAGTAAACAAATTTTCCTAATCTTTCTGTTCAAGCGCCATCTAC”, the binding signal is 1.1 RPM ratio (pull-down/input).

Take “GATGATTGTTCTCCCAGCTGATGAATTCGTTTGCTCGAGTAAACAAATTTTCCTAATCTTTCTGTTCAAGCGCCATCTAC”: the binding signal was 0.977 RPM ratio (pull-down/input).

As for “GATGATTGTTCTCCCAGCTGATGAATTCCCTTTATCGAGTAAACAAATTTTCCTAATCTTTCTGTTCAAGCGCCATCTAC”, the binding signal is 0.868 RPM ratio (pull-down/input).

For “GATGATTGTTCTCCCAGCTGATGAATTGTATTGATCGAGTAAACAAATTTTCCTAATCTTTCTGTTCAAGCGCCATCTAC”, the binding signal is 2.22 RPM ratio (pull-down/input).

Consider “GATGATTGTTCTCCCAGCTGATGAATTCGAGGATTCGAGTAAACAAATTTTCCTAATCTTTCTGTTCAAGCGCCATCTAC”, for which the binding signal is 0.805 RPM ratio (pull-down/input).

For “GATGATTGTTCTCCCAGCTGATGAATTTTGGAACTCGAGTAAACAAATTTTCCTAATCTTTCTGTTCAAGCGCCATCTAC”, the binding signal was 0.835 RPM ratio (pull-down/input).

Take “GATGATTGTTCTCCCAGCTGATGAATTTTAGCGGTCGAGTAAACAAATTTTCCTAATCTTTCTGTTCAAGCGCCATCTAC”: the binding signal was 0.835 RPM ratio (pull-down/input).

Consider “GATGATTGTTCTCCCAGCTGATGAATTTCGCTGCTCGAGTAAACAAATTTTCCTAATCTTTCTGTTCAAGCGCCATCTAC”, for which the binding signal is 0.823 RPM ratio (pull-down/input).

As to “GATGATTGTTCTCCCAGCTGATGAATTTGATACTTCGAGTAAACAAATTTTCCTAATCTTTCTGTTCAAGCGCCATCTAC”, the binding signal was 0.987 RPM ratio (pull-down/input).

For “GATGATTGTTCTCCCAGCTGATGAATTCATCTGCTCGAGTAAACAAATTTTCCTAATCTTTCTGTTCAAGCGCCATCTAC”, the binding signal is 0.781 RPM ratio (pull-down/input).

Take “GATGATTGTTCTCCCAGCTGATGAATTATGGAAGTCGAGTAAACAAATTTTCCTAATCTTTCTGTTCAAGCGCCATCTAC”: the binding signal is 0.876 RPM ratio (pull-down/input).

With “GATGATTGTTCTCCCAGCTGATGAATTCCTCCGGTCGAGTAAACAAATTTTCCTAATCTTTCTGTTCAAGCGCCATCTAC”, the binding signal was 0.756 RPM ratio (pull-down/input).

Take “GATGATTGTTCTCCCAGCTGATGAATTGTTCCCGTCGAGTAAACAAATTTTCCTAATCTTTCTGTTCAAGCGCCATCTAC”: the binding signal is 1.04 RPM ratio (pull-down/input).

Turning to “GATGATTGTTCTCCCAGCTGATGAATTACGCGACTCGAGTAAACAAATTTTCCTAATCTTTCTGTTCAAGCGCCATCTAC”, the binding signal is 0.92 RPM ratio (pull-down/input).

With “GATGATTGTTCTCCCAGCTGATGAATTTGTCCCGTCGAGTAAACAAATTTTCCTAATCTTTCTGTTCAAGCGCCATCTAC”, the binding signal was 1.01 RPM ratio (pull-down/input).

Consider “GATGATTGTTCTCCCAGCTGATGAATTAAGAGAATCGAGTAAACAAATTTTCCTAATCTTTCTGTTCAAGCGCCATCTAC”, for which the binding signal is 0.949 RPM ratio (pull-down/input).

Take “GATGATTGTTCTCCCAGCTGATGAATTAAACTGATCGAGTAAACAAATTTTCCTAATCTTTCTGTTCAAGCGCCATCTAC”: the binding signal was 0.977 RPM ratio (pull-down/input).

With “GATGATTGTTCTCCCAGCTGATGAATTTATCGCGTCGAGTAAACAAATTTTCCTAATCTTTCTGTTCAAGCGCCATCTAC”, the binding signal was 1.12 RPM ratio (pull-down/input).

Regarding “GATGATTGTTCTCCCAGCTGATGAATTGCGCCTATCGAGTAAACAAATTTTCCTAATCTTTCTGTTCAAGCGCCATCTAC”, the binding signal was 1.08 RPM ratio (pull-down/input).

Take “GATGATTGTTCTCCCAGCTGATGAATTTAAAATCTCGAGTAAACAAATTTTCCTAATCTTTCTGTTCAAGCGCCATCTAC”: the binding signal was 0.867 RPM ratio (pull-down/input).
